Source: PubChem BioAssay AID485294 (National Center for Advancing Translational Sciences (NCATS), 2010)
The whole screen tested about 370,000 compounds, of which about 150 (0.041%) were called active. Inconclusive results, whose numbers are uncertain, are shown with a selection of clear calls. The call rests on the fitted dose curve; in most records, active means well fitted inhibition curve with a large enough effect; inconclusive means small, poorly fitted or top-dose-only effect; inactive means flat fitted curve, though single readings scatter. Potencies of inconclusive entries are left out as doubtful fits.

target: Beta-lactamase (Escherichia coli (strain K12)) (UniProt P00811); assay: qHTS Inhibitors of AmpC Beta-Lactamase (assay with detergent); details: AmpC hydrolysis of nitrocefin, absorbance 480 nm, 0.01% Triton; series mostly up to 114 µM; further: nearly all actives have a fitted effect of over 25% in size
Chain of UniProt P00811 (P00811 whole entry, looked up): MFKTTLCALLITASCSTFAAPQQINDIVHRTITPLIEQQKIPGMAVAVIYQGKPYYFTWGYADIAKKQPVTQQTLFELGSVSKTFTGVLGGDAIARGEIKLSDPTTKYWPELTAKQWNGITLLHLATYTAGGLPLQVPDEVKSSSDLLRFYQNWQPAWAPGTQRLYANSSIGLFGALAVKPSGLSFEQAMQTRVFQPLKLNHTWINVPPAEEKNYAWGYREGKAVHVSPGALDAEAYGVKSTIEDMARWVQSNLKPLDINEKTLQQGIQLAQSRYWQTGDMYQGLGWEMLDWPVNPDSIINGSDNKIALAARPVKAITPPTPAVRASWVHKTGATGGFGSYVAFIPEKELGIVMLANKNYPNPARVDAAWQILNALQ
Method in brief: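 20 mM phosphate pH 7.0 + 0.01% (detergent screen) or 0.0001% Triton X-100; 5.3 nM AmpC reagent; cpd preinc 15 min RT; nitrocefin (800 uM stock) to start; A480 q20 s × 4 min; Activity was normalised to no-enzyme and no-compound control wells.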
Potency means the concentration at half of the fitted maximal effect; tags describe the fitted curve by direction and shape.

SMILES | Potency
O=S(=O)(c1ccccc1Br)N1CCN(c2ncccn2)CC1 | inconclusive [inhibitor, single point]
CN(C(=O)CSc1nnnn1C)C1(C#N)CCCCC1 | inconclusive [inhibitor, full curve]
CCOc1ccc(S(=O)(=O)Nc2ccc3c(c2)OCO3)c2cccnc12 | inactive
CC(=O)c1cccc(NC(=O)N2CCCC2C(=O)Nc2cccc(C)c2)c1 (configuration not stated) | inconclusive [inhibitor, full curve, poor fit]
Cc1nn(CC(=O)N2CCN(Cc3ccccc3)CC2)c(=O)c2ccccc12 | inconclusive [inhibitor, full curve, poor fit]
COc1cccc(C(=O)N2CCN(C(=O)C3CC3)CC2)c1 | inactive
CN1CCN(C(=O)c2ccccc2NC(=O)c2cccs2)CC1 | inconclusive [inhibitor, partial curve, poor fit]
Cc1ccc(S(=O)(=O)CCC(=O)Nc2ccccc2Cl)cc1 | inactive
CC(C)=C1C2CCC1C(C(=O)NCc1ccccc1)C2C(=O)O (configuration not stated) | inconclusive [inhibitor, full curve, poor fit]
O=C(C(c1ccccc1)c1ccccc1)N(Cc1ccco1)C1CCS(=O)(=O)C1 (configuration not stated) | inconclusive [inhibitor, partial curve, poor fit]
O=C1CN(C(=O)COc2ccccc2)C(c2ccc(F)cc2)c2cc(Br)ccc2N1 (configuration not stated) | inconclusive [inhibitor, single point]
CCOC(=O)c1cc2c(N)c(C(=O)c3cc(C#N)c(SC)nc3C)sc2nc1C | inconclusive [inhibitor, partial curve]
COC(=O)c1sccc1NC(=O)c1ccc(OC)c([N+](=O)[O-])c1 | inconclusive [inhibitor, single point]
Oc1ccc2ccccc2c1C=NCc1cn2ccsc2n1 | inconclusive [inhibitor, single point]
Cc1oc(-c2ccccc2F)nc1CSCC(=O)NCc1ccc2c(c1)OCO2 | inconclusive [inhibitor, partial curve]
O=C(O)Cn1c(=O)n(Cc2ccccc2)c2ccccc21 | inconclusive [inhibitor, full curve]
CCOC(=O)Nc1ccc(Cc2ccncc2)cc1 | inactive
CS(=O)(=O)N1CCCC(C(=O)Nc2ccc(F)cc2)C1 (configuration not stated) | inactive
COc1ccc(-n2nnnc2SCC(=O)Nc2nc3c(s2)CCCC3)cc1 | inconclusive [inhibitor, full curve, poor fit]
Cc1cc(=O)n2ccccc2c1C#N | inactive
COc1ccc(C2=NCCc3cc(OC)c(OC)cc32)cc1 | inconclusive [inhibitor, partial curve, poor fit]
Nc1nc(-c2ccco2)nn1C(=O)CCc1ccccc1 | inconclusive [inhibitor, full curve]
Cc1cc(C)nc(NC(=O)CCN2C(=O)c3ccccc3S2(=O)=O)n1 | inconclusive [inhibitor, full curve]
CN1CCN(c2ccc(C(CC(N)=O)NC(=O)Cc3cccc4ccccc34)cc2[N+](=O)[O-])CC1 (configuration not stated) | inconclusive [inhibitor, full curve, poor fit]

SMILES | Potency
CCOC(=O)CSc1nc2ccc(N3CCOCC3)cc2c(=O)n1Cc1ccc2c(c1)OCO2 | inactive
COc1ccc(CC(=O)N2CCC(n3nccc3NC(=O)C3CCOC3)CC2)cc1 (configuration not stated) | inactive
Nc1ncnc2c1ncn2CCc1ccccc1 | inactive
CC1CCCCN1CCNC(=O)C1CCN(S(=O)(=O)c2cccc3cccnc23)CC1 (configuration not stated) | inconclusive [inhibitor, full curve, poor fit]
Cc1ccc(CNC(=O)c2cc3c(-c4ccc(Cl)cc4)nn(C)c3s2)o1 | inconclusive [inhibitor, full curve]
COc1cccc(C(=O)NNS(=O)(=O)c2ccc(F)cc2)c1 | inconclusive [inhibitor, partial curve]
O=C(C1CCCN(S(=O)(=O)c2cnc[nH]2)C1)N1CCN(Cc2ccccc2)CC1 (configuration not stated) | inconclusive [inhibitor, full curve, poor fit]
CC(=O)Nc1cccc(NC(=O)CSc2nccn2C2CCCC2)c1 | inactive
CCc1cccc(NC(=O)c2cc3c(s2)-c2ccccc2OC3)c1 | inactive
COc1ccc(C2=NOC(C(=O)Nc3cc(C)on3)C2)cc1 (configuration not stated) | inconclusive [inhibitor, full curve]
O=C(NCC1CCCCC1)c1ccco1 | inconclusive [inhibitor, full curve]
CCN(CC)CCOC(=O)c1ccc(N/C=C(/C#N)c2nc(-c3cccc(OC)c3)cs2)cc1 | inactive
CSc1nc2ccc(NC(=O)C3=NN(c4ccccc4)C(=O)CC3)cc2s1 | inactive
COC(=O)C1C(=O)C2=C(CC1C)NC(C)=C(C(=O)OC1CCCCC1)C2c1ccc(N(C)C)cc1 (configuration not stated) | inactive
CC(C)(C)n1nnnc1C(c1cccnc1)N(Cc1ccccc1)Cc1cccs1 (configuration not stated) | inactive
CC(C)CN(Cc1c(O)ccc2c(=O)c(-c3ccccc3)coc12)CC(C)C | inconclusive [inhibitor, full curve]
CCOc1ccc(Cn2nnc(C(=O)Nc3ccc(OC)cc3OC)c2N)cc1 | inconclusive [inhibitor, full curve, poor fit]
CCN(CC)C(=O)CSc1nnc(-c2ccco2)n1N | inactive
Cc1nn(C(C)C(=O)N/N=C/c2ccc(N(C)C)cc2)c(C)c1[N+](=O)[O-] (configuration not stated) | inactive
O=C(NCCc1ccccn1)c1cc2ccccc2o1 | inactive
COc1ccc(CCNC(=O)CSC2=NS(=O)(=O)c3cc(Cl)ccc3N2)cc1OC | inconclusive [inhibitor, full curve, poor fit]
COc1cccc(/C(O)=C2/C(=O)C(=O)N(c3cc(C)on3)C2c2cccs2)c1 (configuration not stated) | inactive
CCC(c1nnnn1C1CCCC1)N(Cc1cccs1)Cc1cc2cc(C)ccc2[nH]c1=O (configuration not stated) | inconclusive [inhibitor, partial curve, poor fit]
CCN(CC)S(=O)(=O)c1ccc(N2CCOCC2)c(NC(=O)C2=COCCO2)c1 | inactive

SMILES | Potency
COc1ccccc1N1CCN(C(=O)c2ccc3c(=O)n(Cc4ccco4)c(=S)[nH]c3c2)CC1 | inconclusive [inhibitor, single point]
O=C(O)CCCn1nc(-c2ccccc2)c2ccccc21 | inconclusive [inhibitor, full curve, poor fit]
C=C1CCN(C(Cc2ccccc2)C(=O)OC)S(=O)(=O)c2ccc(F)cc21 (configuration not stated) | inactive
COC(=O)[C@H](CCSC)NC(=O)NCc1cccs1 | inconclusive [inhibitor, partial curve, poor fit]
COCCN1C(=O)C(=O)/C(=C(/O)c2ccc3c(c2)OCCO3)C1c1ccc(C(=O)OC)cc1 (configuration not stated) | inconclusive [inhibitor, single point]
O=C(CCN1C(=O)/C(=C\c2ccco2)SC1=S)Nc1ccc(C(=O)O)c(O)c1 | inconclusive [inhibitor, partial curve]
Cc1cc(C(=O)COC(=O)CNC(=O)c2ccc(F)cc2)c(C)n1Cc1ccco1 | inconclusive [inhibitor, full curve, poor fit]
Cc1cc(C(=O)COC(=O)c2ccc3c(c2)OCO3)c(C)n1Cc1cccs1 | inconclusive [inhibitor, full curve]
COCCNc1nc(-c2cc(C)n(CCc3ccc(OC)cc3)c2C)cs1 | inconclusive [inhibitor, full curve, poor fit]
Cc1cccc(OCCCCn2c(C3CC(=O)N(c4ccc(C)cc4C)C3)nc3ccccc32)c1 (configuration not stated) | inactive
O=c1cc(-c2ccccc2)[nH]c2ccccc12 | inconclusive [inhibitor, partial curve, poor fit]
CCn1c(-c2ccc(OC)c(OC)c2)n[nH]c1=S | inconclusive [inhibitor, full curve]
CC(C)n1c(N2CCN(C(=O)NCc3ccccc3)CC2)nc2ccccc21 | inconclusive [inhibitor, full curve]
O=C(COc1ccccc1C(=O)Nc1ccccc1)c1ccc(F)cc1 | inconclusive [inhibitor, single point]
Cc1nn(CC(=O)NCc2ccccc2Br)c(=O)c2cc3occc3n12 | inactive
N#C/C(=C\c1ccc(F)cc1)C(=O)NC1CCS(=O)(=O)C1 (configuration not stated) | inactive
O=C(COc1ccccc1F)Nc1nnc(-c2ccncc2)s1 | inconclusive [inhibitor, full curve, poor fit]
COc1ccc(CN(CCC#N)C(=S)NC(=O)c2ccccc2)cc1 | inactive
COc1ccc(Nc2c3c(nc4ccccc24)CCC3)cc1 | inactive
CCOC(=O)COc1ccc(C(=O)c2ccccc2)c(O)c1 | inactive
N#CCC(=O)N1CCn2c1nc1ccccc12 | inactive
COc1ccccc1NC(=O)C1CCCN(S(=O)(=O)c2cccc3nsnc23)C1 (configuration not stated) | inconclusive [inhibitor, partial curve, poor fit]
O=C(Nc1ccc([N+](=O)[O-])cc1)C1COc2ccccc2O1 (configuration not stated) | inconclusive [inhibitor, full curve]
CCNC(=O)NC(=O)COC(=O)c1cccc(S(=O)(=O)N2CC3(C)CC2CC(C)(C)C3)c1 (configuration not stated) | inconclusive [inhibitor, full curve, poor fit]
